From the RNAGym collection of RNA variant scans (doi:10.1073/pnas.2313332121)
Variants at the background level are over-represented here.

B1: TPR 5TU (parent)
chain: GGAUCUUCUCGAUCUAACAAAAAAGACAAAUCUGCCACAAAGCUUGAGAGCAUCUUCGGAUGCAGAGGCGGCAGCCUUCGGUGGCGCGAUAGCGCCAACGUUCUCAACUAUGACACGCAAAACGCGUGCUCCGUUGAAUGGAGUUUAUCAUG

Variants of: B1
Test: polymerase ribozyme fitness, log enrichment relative to wild type (log ratio); higher = more active; in vitro selection for triplet polymerase activity
Procedure, shortened: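 PCR was used to build mutant libraries for each subunit of a heterodimeric triplet polymerase ribozyme, which were then transcribed. A single in vitro selection round, in triplicate, used a frozen incubation at −7 °C and recovered extended constructs by gel excision, streptavidin beads and RT-PCR. Fitness is the logarithm of genotype enrichment relative to wild-type enrichment, averaged over replicates with inverse-variance weights. The logarithm is base 2, and after Illumina sequencing only genotypes with ≥10 input reads and ≥1 read per output were kept.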

Row | Variant | polymerase ribozyme fitness (log ratio)
1 | C85A G94A G128C | -3.21
2 | C85A G88U C95G A97C | ≤ -4.2
3 | G84A A106U G141U | -0.79
4 | C85A C93U | ≤ -4.2
5 | G84U A91G U144G | -1.53
6 | C85G A106G | -2.59
7 | G84A U101A A115U A121G G124A | ≤ -4.2
8 | G83U C87U A89C C123A C125U | -1.33
9 | G84A C85U G88A C99A C131G U139C | ≤ -4.2
10 | G84A A150C | -3
11 | G84U A107G C114U U144A | ≤ -4.2
12 | G84A U102A | -1.01
13 | C85A U148C | -2.22
14 | U82G G84A U145C | -0.385
15 | G83A U102C C103G U145G | ≤ -4.2
16 | G84A C87G C95A G124A A147U | ≤ -4.2
17 | C85A G117A | -1.76
18 | C85A A98G C116U A120C A147U | 0.389
19 | C85A G133U | ≤ -4.2
20 | G83C A91U C96A | ≤ -4.2
21 | G84U C87A A98G C116A U134G U135A G136A | ≤ -4.2
22 | G84A U145A | 0.189
23 | G83U C93U | -2.69
24 | C85A G88C U146G | ≤ -4.2

Row | Variant | polymerase ribozyme fitness (log ratio)
25 | G83U G94C C149A | ≤ -4.2
26 | C85A C103A G152A | ≤ -4.2
27 | G84A G94C C116G C118A G141A | ≤ -4.2
28 | C85A G140A | -4.18
29 | G83A U146G | -1.33
30 | G84U U101G G126C | -1.67
31 | G84U A110U | ≤ -4.2
32 | G83U C132U | -1.33
33 | G84C A106U A113U U144G | ≤ -4.2
34 | C85G C114A | ≤ -4.2
35 | U82G C96U A137C | -3.87
36 | G83U A150G | -3.14
37 | G84A C95G G141C | -0.311
38 | G83C C118U | -1.34
39 | C85G C108A | ≤ -4.2
40 | G84U C103A A122C G140A | ≤ -4.2
41 | G83A C85U A106C C132G G140A | ≤ -4.2
42 | G84A A89U C103A C105U U148G | ≤ -4.2
43 | G84A C96A A119U | -1.11
44 | G83U A120U A137C | -3.31
45 | U82G C125G | -1.76
46 | G83A G86U C118U | -3.81
47 | U82G G84A G86U C118G | ≤ -4.2
48 | G84A A91U G126U G143U | ≤ -4.2

Row | Variant | polymerase ribozyme fitness (log ratio)
49 | G84U A89U U104G U127A | ≤ -4.2
50 | G83U C87U U127G U130A U146A G152C | ≤ -4.2
51 | G84C G92C A106U C149U | ≤ -4.2
52 | G84C C118A U148A | ≤ -4.2
53 | G83U G94U C95A | -1.62
54 | U82C G86C | ≤ -4.2
55 | C85A A115G U148A | ≤ -4.2
56 | U82G U102G G152U | ≤ -4.2
57 | C85G C93G G136A A142C | ≤ -4.2
58 | C85G C87A A119U G141U | ≤ -4.2
59 | C85A G112U | ≤ -4.2
60 | U82G C87U G92U A98G | -2.69
61 | G84A C93U C108G A137U | ≤ -4.2
62 | U82A U90C A91U G126U G140C | ≤ -4.2
63 | G83U A98C A115G | -1.62
64 | C85A G92U G117U | -2.26
65 | G84A C103G C149U | -3.35
66 | G84U C103U A137C | ≤ -4.2
67 | C85A C87A U148C | ≤ -4.2
68 | C85A G92C G141A G143U | ≤ -4.2
69 | U82G A89U A91U A98U G100C | ≤ -4.2
70 | G84U A120G | -2.16
71 | G83U A142C U145C | -3.76
72 | C85A U139C U145C | ≤ -4.2

Row | Variant | polymerase ribozyme fitness (log ratio)
73 | G83C A106G G112A A142U | ≤ -4.2
74 | U82A C125G | -0.33
75 | C85G C96U | -2.26
76 | U82G G100U G128A | ≤ -4.2
77 | C85G A97C U102A C103A G124C A137U | ≤ -4.2
78 | G84A A97G C129A G152A | -4
79 | G84A G136A | -0.313
80 | G84U A106U | -2.69
81 | G84A U90A | ≤ -4.2
82 | U82C U90G C125G | ≤ -4.2
83 | G84A C85U U90A C96G C105U A138C U148C C149U U151C | ≤ -4.2
84 | U82G C93A | -2.46
85 | G84U A142G | -3.27
86 | G83A G141U | -0.659
87 | G83A G86U A107C | ≤ -4.2
88 | C85G A142C | -2.98
89 | G83U A115C | -0.337
90 | G84U C123A | -1.79
91 | G84A C108A | ≤ -4.2
92 | G84U G92C A110C | ≤ -4.2
93 | G83U G128U | -3.22
94 | U82G C93A G133A U134A | ≤ -4.2
95 | G83C C95G | ≤ -4.2
96 | G84A U90G C96G | ≤ -4.2

Row | Variant | polymerase ribozyme fitness (log ratio)
97 | G84A G117U U139G U145C | -0.527
98 | C85G C108G G112U | ≤ -4.2
99 | U82C C96U A98G U104G C116A U134A | ≤ -4.2
100 | C85A A150C | ≤ -4.2
101 | G83A C85A | ≤ -4.2
102 | G84U G140U | ≤ -4.2
103 | G84A U134C | -0.573
104 | G84A U134G | -2.31
105 | G84A C118A U146C | -1.34
106 | C85A A98U C108A U134G | ≤ -4.2
107 | G84A G112A U139A | ≤ -4.2
108 | G84U C85G | ≤ -4.2
109 | G84C C116A A119G U144C | ≤ -4.2
110 | G83C C116U A120C U135G | -3.87
111 | G83C C118A A142G | -2.35
112 | C85A C87U A119U | ≤ -4.2
113 | C85A C125A C129A U139G | ≤ -4.2
114 | G84U G117U C123U G141A U146A | ≤ -4.2
115 | G83C A91U | ≤ -4.2
116 | C85G A91U | ≤ -4.2
117 | G83U C87A | ≤ -4.2
118 | G84A G88A A137U | ≤ -4.2
119 | G83C C103A U127A G143U | ≤ -4.2
120 | C85A C96A | -2.22

Row | Variant | polymerase ribozyme fitness (log ratio)
121 | G83A A107C C116A | ≤ -4.2
122 | G84A G124A | -0.287
123 | G84A A97G | -2.34
124 | G83C C95G U148G | ≤ -4.2
125 | G84A A106C U109G A137G A150C | ≤ -4.2
126 | G84C G117C | -1.73
127 | G83A A97U | 0.538
128 | G83C A115U A120U | -1.99
129 | C85A U144G | -0.777
130 | G83U G88C C123G U148G C149U | ≤ -4.2
131 | C85G A97U | ≤ -4.2
132 | C85G A97G U139G | ≤ -4.2
133 | C85G C93U C116U U127G | ≤ -4.2
134 | G84U U104G C125A | -3.09
135 | G84A C118A A142C U144C | ≤ -4.2
136 | C85A G126A | -1.32
137 | G84A U127C U139G A142C | -3.93
138 | G84U A97U G136C | ≤ -4.2
139 | C85G A89G | ≤ -4.2
140 | G84U G92C C99U | ≤ -4.2
141 | C85G | -2.05
142 | C85A | -1.28
143 | U82A U101C G124U U134C A137C | ≤ -4.2
144 | G84U G136A G141C | -1.29

Row | Variant | polymerase ribozyme fitness (log ratio)
145 | G84A U144A U146C U148C | ≤ -4.2
146 | C85G A106G A119G C131A U151A G152U | ≤ -4.2
147 | G84U U144A | -3.22
148 | G84A G133C G141C | -2.83
149 | C85A C114U G143A | ≤ -4.2
150 | G84A C85A A91G U109G C125G | ≤ -4.2
151 | C85A A91G G94A A120U G143U | ≤ -4.2
152 | G83U U90G C99A A107U U148A | ≤ -4.2
153 | G84C C87A | ≤ -4.2
154 | G84C A115G | -2.49
155 | C85A G136C | -4.19
156 | G83C C93U | -2.49
157 | G83A C93G C95U A98U C108G | ≤ -4.2
158 | G83A C93G C108U | ≤ -4.2
159 | G83C A106G | -0.352
160 | U82G G86A | -0.594
161 | G83C G140A U148A | ≤ -4.2
162 | G84A C131G | -3.02
163 | C85A U127A | -3.68
164 | C85A A137G | -2.96
165 | C85A G124C | -1.69
166 | G83U U102C | -1.16
167 | G83A A91C A142G | ≤ -4.2
